# This is one part of the list.
# B1: Siglec-F (Mus musculus), Q920G3 (protein)
# chain: MRWAWLLPLLWAGCLATDGYSLSVTGSVTVQEGLCVFVACQVQYPNSKGPVFGYWFREGANIFSGSPVATNDPQRSVLKEAQGRFYLMGKENSHNCSLDIRDAQKIDTGTYFFRLDGSVKYSFQKSMLSVLVIALTEVPNIQVTSTLVSGNSTKLLCSVPWACEQGTPPIFSWMSSALTSLGHRTTLSSELNLTPRPQDNGTNLTCQVNLPGTGVTVERTQQLSVIYAPQKMTIRVSWGDDTGTKVLQSGASLQIQEGESLSLVCMADSNPPAVLSWERPTQKPFQLSTPAELQLPRAELEDQGKYICQAQNSQGAQTASVSLSIRSLLQLLGPSCSFEGQGLHCSCSSRAWPAPSLRWRLGEGVLEGNSSNGSFTVKSSSAGQWANSSLILSMEFSSNHRLSCEAWSDNRVQRATILLVSGPKVSQAGKSETSRGTVLGAIWGAGLMALLAVCLCLIFFTVKVLRKKSALKVAATKGNHLAKNPASTINSASITSSNIALGYPIQGHLNEPGSQTQKEQPPLATVPDTQKDEPELHYASLSFQGPMPPKPQNTEAMKSVYTEIKIHKC
# Legend:
# Experiment in all cases: glycan array binding signal (z-score within array); higher = stronger binding
# Details in all cases: glycan notation: IUPAC condensed, linker removed
# [1] = target: Fuc(a1-2)Gal(b1-4)[Fuc(a1-3)]GlcNAc(b1-3)GalNAc
# Outline: (§1)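 Negative Z-scores can be read as non-binding. The Z-score is calculated within each array and then averaged across arrays of one protein sequence at different concentrations or buffers and across linkers. Arrays, 3228 in all, were curated from the Consortium for Functional Glycomics database and kept only where the protein sequence was available.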
# [2] = target: Fuc(a1-2)Gal(b1-4)[Fuc(a1-3)]GlcNAc(b1-3)[Neu5Ac(a2-6)Gal(b1-4)GlcNAc(b1-6)]Gal(b1-4)Glc
# Outline: as §1
# [3] = target: Fuc(a1-2)Gal3S(b1-4)GlcNAc
# Outline: as §1
# [4] = target: Fuc(a1-2)Gal6S(b1-3)GlcNAc
# Outline: as §1
# [5] = target: Fuc(a1-2)Gal6S(b1-3)GlcNAc6S
# Outline: as §1
# Fuc(a1-2)Gal6S(b1-4)Glc = target: Fuc(a1-2)Gal6S(b1-4)Glc
# Outline: as §1
# [6] = target: Fuc(a1-2)Gal6S(b1-4)Glc6S
# Outline: as §1
# [7] = target: Fuc(a1-2)Gal6S(b1-4)GlcNAc
# Outline: as §1
# Fuc(a1-2)[Gal(a1-3)]Gal = target: Fuc(a1-2)[Gal(a1-3)]Gal
# Outline: as §1
# [8] = target: Fuc(a1-2)[Gal(a1-3)]Gal(b1-3)GalNAc
# Outline: as §1
# [9] = target: Fuc(a1-2)[Gal(a1-3)]Gal(b1-3)GalNAc(b1-3)Gal(a1-4)Gal(b1-4)Glc
# Outline: as §1
# [10] = target: Fuc(a1-2)[Gal(a1-3)]Gal(b1-3)GlcNAc
# Outline: as §1
# [11] = target: Fuc(a1-2)[Gal(a1-3)]Gal(b1-3)GlcNAc(b1-2)Man(a1-3)[Fuc(a1-2)[Gal(a1-3)]Gal(b1-3)GlcNAc(b1-2)Man(a1-6)]Man(b1-4)GlcNAc(b1-4)GlcNAc
# Outline: as §1
# [12] = target: Fuc(a1-2)[Gal(a1-3)]Gal(b1-3)GlcNAc(b1-2)Man(a1-3)[Fuc(a1-2)[Gal(a1-3)]Gal(b1-3)GlcNAc(b1-2)Man(a1-6)]Man(b1-4)GlcNAc(b1-4)[Fuc(a1-6)]GlcNAc
# Outline: as §1
# [13] = target: Fuc(a1-2)[Gal(a1-3)]Gal(b1-3)GlcNAc(b1-3)GalNAc
# Outline: as §1
# [14] = target: Fuc(a1-2)[Gal(a1-3)]Gal(b1-3)GlcNAc(b1-6)GalNAc
# Outline: as §1
# [15] = target: Fuc(a1-2)[Gal(a1-3)]Gal(b1-4)Glc
# Outline: as §1
# [16] = target: Fuc(a1-2)[Gal(a1-3)]Gal(b1-4)GlcNAc
# Outline: as §1
# [17] = target: Fuc(a1-2)[Gal(a1-3)]Gal(b1-4)GlcNAc(b1-2)Man
# Outline: as §1
# [18] = target: Fuc(a1-2)[Gal(a1-3)]Gal(b1-4)GlcNAc(b1-2)Man(a1-3)[Fuc(a1-2)[Gal(a1-3)]Gal(b1-4)GlcNAc(b1-2)Man(a1-6)]Man(b1-4)GlcNAc(b1-4)GlcNAc
# Outline: as §1
# [19] = target: Fuc(a1-2)[Gal(a1-3)]Gal(b1-4)GlcNAc(b1-2)Man(a1-3)[Fuc(a1-2)[Gal(a1-3)]Gal(b1-4)GlcNAc(b1-2)Man(a1-6)]Man(b1-4)GlcNAc(b1-4)[Fuc(a1-6)]GlcNAc
# Outline: as §1
# [20] = target: Fuc(a1-2)[Gal(a1-3)]Gal(b1-4)GlcNAc(b1-3)GalNAc
# Outline: as §1
# [21] = target: Fuc(a1-2)[Gal(a1-3)]Gal(b1-4)GlcNAc(b1-3)[Fuc(a1-2)[Gal(a1-3)]Gal(b1-4)GlcNAc(b1-6)]GalNAc
# Outline: as §1
# [22] = target: Fuc(a1-2)[Gal(a1-3)]Gal(b1-4)GlcNAc(b1-6)GalNAc
# Outline: as §1
# [23] = target: Fuc(a1-2)[Gal(a1-3)]Gal(b1-4)[Fuc(a1-3)]Glc
# Outline: as §1
# [24] = target: Fuc(a1-2)[Gal(a1-3)]Gal(b1-4)[Fuc(a1-3)]GlcNAc
# Outline: as §1
# [25] = target: Fuc(a1-2)[Gal(a1-3)]Gal(b1-4)[Fuc(a1-3)]GlcNAc(b1-3)GalNAc
# Outline: as §1
# [26] = target: Fuc(a1-2)[Gal(a1-4)]Gal(b1-4)GlcNAc
# Outline: as §1
# [27] = target: Fuc(a1-2)[GalNAc(a1-3)]Gal
# Outline: as §1
# [28] = target: Fuc(a1-2)[GalNAc(a1-3)]Gal(b1-3)GalNAc(a1-3)[Fuc(a1-2)]Gal(b1-4)GlcNAc
# Outline: as §1
# [29] = target: Fuc(a1-2)[GalNAc(a1-3)]Gal(b1-3)GalNAc(b1-3)Gal(a1-4)Gal(b1-4)Glc
# Outline: as §1
# [30] = target: Fuc(a1-2)[GalNAc(a1-3)]Gal(b1-3)GlcNAc
# Outline: as §1
# [31] = target: Fuc(a1-2)[GalNAc(a1-3)]Gal(b1-3)GlcNAc(b1-2)Man(a1-3)[Fuc(a1-2)[GalNAc(a1-3)]Gal(b1-3)GlcNAc(b1-2)Man(a1-6)]Man(b1-4)GlcNAc(b1-4)GlcNAc
# Outline: as §1
# [32] = target: Fuc(a1-2)[GalNAc(a1-3)]Gal(b1-3)GlcNAc(b1-2)Man(a1-3)[Fuc(a1-2)[GalNAc(a1-3)]Gal(b1-3)GlcNAc(b1-2)Man(a1-6)]Man(b1-4)GlcNAc(b1-4)[Fuc(a1-6)]GlcNAc
# Outline: as §1
# [33] = target: Fuc(a1-2)[GalNAc(a1-3)]Gal(b1-3)GlcNAc(b1-3)GalNAc
# Outline: as §1
# [34] = target: Fuc(a1-2)[GalNAc(a1-3)]Gal(b1-3)GlcNAc(b1-6)GalNAc
# Outline: as §1
# [35] = target: Fuc(a1-2)[GalNAc(a1-3)]Gal(b1-4)Glc
# Outline: as §1
# [36] = target: Fuc(a1-2)[GalNAc(a1-3)]Gal(b1-4)GlcNAc
# Outline: as §1
# [37] = target: Fuc(a1-2)[GalNAc(a1-3)]Gal(b1-4)GlcNAc(b1-2)Man
# Outline: as §1
# [38] = target: Fuc(a1-2)[GalNAc(a1-3)]Gal(b1-4)GlcNAc(b1-2)Man(a1-3)[Fuc(a1-2)[GalNAc(a1-3)]Gal(b1-4)GlcNAc(b1-2)Man(a1-6)]Man(b1-4)GlcNAc(b1-4)GlcNAc
# Outline: as §1
# [39] = target: Fuc(a1-2)[GalNAc(a1-3)]Gal(b1-4)GlcNAc(b1-2)Man(a1-3)[Fuc(a1-2)[GalNAc(a1-3)]Gal(b1-4)GlcNAc(b1-2)Man(a1-6)]Man(b1-4)GlcNAc(b1-4)[Fuc(a1-6)]GlcNAc
# Outline: as §1
# [40] = target: Fuc(a1-2)[GalNAc(a1-3)]Gal(b1-4)GlcNAc(b1-3)Gal(b1-4)GlcNAc
# Outline: as §1
# [41] = target: Fuc(a1-2)[GalNAc(a1-3)]Gal(b1-4)GlcNAc(b1-3)Gal(b1-4)GlcNAc(b1-3)Gal(b1-4)GlcNAc
# Outline: as §1
# [42] = target: Fuc(a1-2)[GalNAc(a1-3)]Gal(b1-4)GlcNAc(b1-3)GalNAc
# Outline: as §1
# [43] = target: Fuc(a1-2)[GalNAc(a1-3)]Gal(b1-4)GlcNAc(b1-3)[Fuc(a1-2)[GalNAc(a1-3)]Gal(b1-4)GlcNAc(b1-6)]GalNAc
# Outline: as §1
binder,measurement,setting,value
B1,glycan array binding signal (z-score),[1],0.013
same,glycan array binding signal (z-score),[2],-0.156
same,glycan array binding signal (z-score),[3],-0.15
same,glycan array binding signal (z-score),[4],-0.161
same,glycan array binding signal (z-score),[5],0.045
same,glycan array binding signal (z-score),Fuc(a1-2)Gal6S(b1-4)Glc,-0.123
same,glycan array binding signal (z-score),[6],-0.114
same,glycan array binding signal (z-score),[7],-0.09
same,glycan array binding signal (z-score),Fuc(a1-2)[Gal(a1-3)]Gal,-0.114
same,glycan array binding signal (z-score),[8],-0.116
same,glycan array binding signal (z-score),[9],-0.149
same,glycan array binding signal (z-score),[10],-0.115
same,glycan array binding signal (z-score),[11],-0.116
same,glycan array binding signal (z-score),[12],-0.093
same,glycan array binding signal (z-score),[13],-0.118
same,glycan array binding signal (z-score),[14],0.012
same,glycan array binding signal (z-score),[15],-0.112
same,glycan array binding signal (z-score),[16],-0.127
same,glycan array binding signal (z-score),[17],-0.144
same,glycan array binding signal (z-score),[18],-0.031
same,glycan array binding signal (z-score),[19],-0.067
same,glycan array binding signal (z-score),[20],-0.097
same,glycan array binding signal (z-score),[21],0.018
same,glycan array binding signal (z-score),[22],-0.106
same,glycan array binding signal (z-score),[23],-0.126
same,glycan array binding signal (z-score),[24],-0.107
same,glycan array binding signal (z-score),[25],0.07
same,glycan array binding signal (z-score),[26],-0.108
same,glycan array binding signal (z-score),[27],-0.12
same,glycan array binding signal (z-score),[28],-0.104
same,glycan array binding signal (z-score),[29],-0.151
same,glycan array binding signal (z-score),[30],-0.128
same,glycan array binding signal (z-score),[31],-0.107
same,glycan array binding signal (z-score),[32],-0.099
same,glycan array binding signal (z-score),[33],-0.094
same,glycan array binding signal (z-score),[34],-0.114
same,glycan array binding signal (z-score),[35],-0.113
same,glycan array binding signal (z-score),[36],-0.129
same,glycan array binding signal (z-score),[37],-0.156
same,glycan array binding signal (z-score),[38],-0.049
same,glycan array binding signal (z-score),[39],-0.049
same,glycan array binding signal (z-score),[40],-0.118
same,glycan array binding signal (z-score),[41],-0.111
same,glycan array binding signal (z-score),[42],-0.124
same,glycan array binding signal (z-score),[43],-0.106
